From article PMC11555673, “Modulators of the Hop-HSP90 Protein–Protein Interaction Disrupt KSHV Lytic Replication” (ACS Infectious Diseases, 2024)

Tested on: HopTPR2A–HSP90CTD PPI
Assay: ELISA-based solid-phase HopTPR2A–HSP90CTD PPI inhibitory assay
Type: biochemical

Substance: CPP-MAAVD (disulfide) [CPP-19, MAAVD containing control tethered to the Arg-8 CPP via disulfide linkage]
- Modulation of the HopTPR2A–HSP90CTD interaction (CPP peptides without DTT, 0.5, 5 and 50 μM, Figure 5A): stabilized the PPI in a dose-dependent fashion
- Modulation of the HopTPR2A–HSP90CTD interaction (in the presence of DTT (reductive release of the CPP), Figure 5B): remained inactive
